Test results published in the supplement of paper PMC3334620.
Over roughly 33,000 sequences, “E-score (-0.5 to 0.5)” has its median near -0.021; the highest 2% begin near 0.32. The list shows a part of the results.

Biological target: T1, Zap1 (UniProt P47043)
T1 sequence: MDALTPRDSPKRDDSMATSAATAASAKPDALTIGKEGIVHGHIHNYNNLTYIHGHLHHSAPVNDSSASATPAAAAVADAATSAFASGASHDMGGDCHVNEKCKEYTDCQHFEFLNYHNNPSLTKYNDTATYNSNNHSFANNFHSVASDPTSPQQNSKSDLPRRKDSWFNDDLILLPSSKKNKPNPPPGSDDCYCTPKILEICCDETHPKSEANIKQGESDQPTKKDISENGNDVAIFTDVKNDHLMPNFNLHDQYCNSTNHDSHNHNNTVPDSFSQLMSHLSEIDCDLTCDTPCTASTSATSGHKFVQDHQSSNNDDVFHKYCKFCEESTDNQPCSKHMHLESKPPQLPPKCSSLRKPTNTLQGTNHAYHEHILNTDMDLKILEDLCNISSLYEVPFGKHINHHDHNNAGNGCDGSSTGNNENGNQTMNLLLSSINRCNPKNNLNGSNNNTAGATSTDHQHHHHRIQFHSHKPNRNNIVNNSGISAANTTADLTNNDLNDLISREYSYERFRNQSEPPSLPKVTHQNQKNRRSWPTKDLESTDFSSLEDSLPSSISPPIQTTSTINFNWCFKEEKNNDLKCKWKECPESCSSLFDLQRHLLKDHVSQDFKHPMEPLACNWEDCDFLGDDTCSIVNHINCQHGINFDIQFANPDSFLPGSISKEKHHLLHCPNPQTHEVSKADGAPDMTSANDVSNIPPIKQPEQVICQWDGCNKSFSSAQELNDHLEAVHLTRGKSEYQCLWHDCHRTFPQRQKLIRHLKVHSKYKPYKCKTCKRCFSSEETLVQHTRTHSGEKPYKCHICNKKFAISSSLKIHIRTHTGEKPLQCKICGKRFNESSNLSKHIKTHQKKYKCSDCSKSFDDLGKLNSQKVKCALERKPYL
Assay: PBM E-score (8-mer binding enrichment) (E-score (-0.5 to 0.5)); higher = stronger / more preferred TF binding; most listed sequences are background and not binding sites
Conditions: protein concentration: 200 nM; construct: GST-full length
In short: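 Yeast transcription factors carrying a GST tag, as full-length proteins or DNA-binding domains, were produced by PURExpress in vitro transcription/translation. About 100-200 nM protein was applied to universal all-10-mer Agilent arrays, double-stranded by primer extension on fresh or once-stripped slides. Bound protein was detected with fluorescent anti-GST, and scans were normalised with masliner. The Universal PBM Analysis Suite gave each ungapped eight-base word, pooled with its reverse complement, an E-score, a modified Wilcoxon-Mann-Whitney statistic.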

| Sequence | PBM E-score |
| --- | --- |
| CGTGATGA | -0.0344 |
| GAGCTTAC | -0.115 |
| AAGTCGCT | -0.344 |
| CGCCGGGC | -0.316 |
| GGAGGCCC | -0.0513 |
| AAAATCTC | -0.00181 |
| CTTCGAGC | -0.18 |
| CTGACCAC | 0.153 |
| GCCAAGAC | -0.138 |
| ATTCGCCA | -0.113 |
| AGAGCAGG | -0.114 |
| TATCGAGA | -0.0612 |
| CCCAGGGG | 0.171 |
| ACAAGACT | -0.0293 |
| GGTAGCCA | 0.159 |
| GGTTGCGA | 0.335 |
| CGGGGTTA | 0.474 |
| AAGTTGCG | 0.0515 |
| AATGTTGC | -0.0536 |
| ATAGCAAT | 0.00048 |
| CCCGCTCC | -0.303 |
| CAGGCACG | -0.246 |
| AAGGCCGC | 0.177 |
| AGATTGGC | -0.178 |
| CTTGATTA | 0.14 |

| Sequence | PBM E-score |
| --- | --- |
| AAATTCGG | 0.0593 |
| GGTGGACA | -0.146 |
| CTATATCA | 0.0264 |
| ATAGAGTG | 0.0625 |
| ACGTTCGA | -0.259 |
| AAAATGTA | 0.0542 |
| ATGACCAG | 0.222 |
| AGATGAAC | 0.109 |
| TAGGGAAA | -0.195 |
| CTGTGTAA | 0.12 |
| AATCATAT | 0.104 |
| CAGGATAC | -0.0439 |
| CTTTCATA | 0.132 |
| GTGACAAC | 0.252 |
| AAGCCTCC | -0.279 |
| GCTAGAGA | -0.0712 |
| GAGATGAA | -0.101 |
| CCGGCGCC | -0.114 |
| AAAATAGG | 0.054 |
| GAAAGACC | 0.0674 |
| CGACTCTC | -0.257 |
| ACGGTTCG | -0.122 |
| TCAACTAA | 0.2 |
| GACGTTAA | -0.0249 |
| AGAGTAAC | 0.108 |

| Sequence | PBM E-score |
| --- | --- |
| ACGATAGG | -0.0988 |
| GTCTGGCA | -0.204 |
| AACTTAGG | 0.176 |
| AGGTGTCA | 0.0475 |
| TGTTCAAA | 0.134 |
| GGGTGCGA | -0.0192 |
| CCATACAA | 0.0852 |
| GTTCAGGA | -0.0383 |
| AAAAATCA | 0.0593 |
| CCGAAAAA | 0.281 |
| GAGACGAC | -0.0111 |
| CAAATTAC | 0.119 |
| CTTAGGAA | 0.0479 |
| ACCCGAAG | 0.197 |
| CACTTTCC | -0.234 |
| GCGTTAGC | -0.00904 |
| TGTGTAAA | 0.118 |
| ACCGTAGT | 0.03 |
| AACAATCA | 0.162 |
| CAATCACA | -0.00441 |
| ATGAATTC | 0.0847 |
| AAACCCAA | 0.312 |
| ATCATAGG | -0.0398 |
| CCAAACTC | 0.0772 |
| AACGCTCG | -0.121 |

| Sequence | PBM E-score |
| --- | --- |
| GATGGGGC | -0.213 |
| CGACCTAC | -0.114 |
| ACCCGCGC | 0.277 |
| GGCCTACA | 0.00437 |
| CCGTACAG | 0.00832 |
| CGGGGAAC | -0.0353 |
| AAAATCGC | 0.0335 |
| CTGTTCGC | 0.0386 |
| GTTACTAA | 0.276 |
| GCCCACCC | 0.335 |
| CTGGGGTA | 0.269 |
| CTTAGATA | 0.182 |
| GTCGGGTA | 0.15 |
| GGGTCTAA | 0.0858 |
| ATACCGTA | 0.0745 |
| ATGGCCAT | 0.332 |
| AATCGCCT | -0.178 |
| GTTGTGAA | 0.183 |
| CTATTGTC | -0.146 |
| ACGGGAAT | -0.212 |
| ACCAAGTA | 0.199 |
| GATGGAAA | -0.175 |
| TCCTCTCA | -0.174 |
| ACGGCAGG | -0.214 |
| ATTTACTA | 0.0976 |

| Sequence | PBM E-score |
| --- | --- |
| GTATATGA | 0.0557 |
| CCGGATAA | -0.0864 |
| ATTTTTCG | 0.224 |
| GGGTTCAA | 0.129 |
| CTCTCCCA | -0.263 |
| GTTGGAGA | -0.0385 |
| CACCGTTA | -0.0212 |
| AGGCTAAA | 0.0665 |
| AAATATTG | 0.183 |
| GTCTATGA | 0.00047 |
| CCGGCAAG | -0.0357 |
| CGTCTCGA | 0.012 |
| GGCGACAC | -0.0969 |
| AAGGATCC | -0.102 |
| AATGATTA | 0.198 |
| AGTTCATC | -0.208 |
| AAGGATGT | -0.0318 |
| GGCGGGTA | 0.179 |
| CAAAACAA | 0.0663 |
| GACATTCC | -0.23 |
| CCGCCCAC | 0.0267 |
| ACGCACAG | -0.0633 |
| CTTGCACC | 0.108 |
| CACTCATG | -0.0864 |
| AGGCGCTA | -0.18 |

| Sequence | PBM E-score |
| --- | --- |
| AAGGGCTA | -0.13 |
| CGAGGATC | -0.0132 |
| CCTGGGAG | -0.0746 |
| GGGTGACC | 0.385 |
| AACGTTAC | 0.111 |
| AACTATAC | 0.147 |
| GCGATGCA | -0.334 |
| GAAGATCA | -0.24 |
| CGAACAGA | 0.0674 |
| ACCAAACC | 0.128 |
| ACCGACAT | -0.0697 |
| GTCGCGAA | -0.0334 |
| CCGGGTTC | 0.247 |
| GAGAGCCA | -0.231 |
| TATCCGAA | 0.126 |
| GCCAGGTA | -0.0589 |
| CCAGGCTC | -0.165 |
| AAGATCAC | 0.122 |
| ACCTAGCT | -0.147 |
| AATGGAGT | -0.0281 |
| AAAATCAT | 0.108 |
| ATGTCCTG | -0.0212 |
| ATTGGATG | -0.0351 |
| GATCTTTA | 0.187 |
| AGGTCTTC | -0.0293 |

| Sequence | PBM E-score |
| --- | --- |
| GACCACCA | 0.201 |
| GTGCCCCA | -0.115 |
| AATTTCTA | 0.189 |
| AAACCCGG | 0.261 |
| TCAGACAA | -0.0468 |
| CAGATAAA | -0.0391 |
| GGGCGATA | -0.265 |
| GTTGCCAA | 0.0303 |
| AATATCGG | 0.192 |
| CGGTCTGA | 0.0371 |
| AATCGCAG | -0.0435 |
| CGAGGAAC | 0.0111 |
| ATTCTGGA | 0.116 |
| AGAAATGC | 0.0327 |
| ACTATTAA | 0.204 |
| ATTAGTCA | 0.119 |
| AAGCAGCA | -0.00523 |
| ACGCGATA | -0.149 |
| CAGTTGGC | -0.136 |
| GGCCATTA | 0.212 |
| CGTGTACC | 0.0293 |
| CACATACG | -0.147 |
| CACGCTTC | -0.264 |
| CTGTTCAA | -0.0276 |
| GTGCGCTA | -0.079 |

| Sequence | PBM E-score |
| --- | --- |
| AAATAGCT | -0.141 |
| CCCATTTC | -0.0636 |
| AAACGACT | 0.0428 |
| CTATCATA | 0.109 |
| GCCATTTA | 0.135 |
| CAGCATCA | -0.138 |
| TATTTTGA | 0.00392 |
| CAAAGGCA | -0.122 |
| TCGTCCAA | -0.0362 |
| GCATGCCA | -0.259 |
| ATGGGAAT | -0.246 |
| CAAGTTAA | 0.0614 |
| ACTATACT | 0.0601 |
| TTCCCCAA | -0.0457 |
| CGGTACCC | 0.414 |
| CCGCATGC | -0.0963 |
| AACTGGCA | -0.0324 |
| CCCAGCAG | 0.0983 |
| AACTCAAT | 0.106 |
| AACAATGG | 0.0549 |
| GCGAATAC | -0.0559 |
| TAGACAAA | -0.0412 |
| AATGTTCG | -0.0873 |
| CCAGGCCA | -0.163 |
| ATCTCTAG | -0.145 |

| Sequence | PBM E-score |
| --- | --- |
| ATACTTTA | 0.0993 |
| CCGTCCCC | -0.196 |
| CTGCATAC | -0.0233 |
| CTAGTTTA | 0.182 |
| CGCGCTTA | 0.0235 |
| CATTTACA | -0.0536 |
| ACTCATAT | -0.0639 |
| AAAGTGGA | -0.0378 |
| AGGACGAG | -0.115 |
| GGTTGATA | 0.138 |
| AATTGTGT | -0.141 |
| GAGAGGCC | -0.138 |
| ACTTGACG | -0.0912 |
| ACCCTCTG | 0.313 |
| AAGGCCTA | -0.0221 |
| CTTTGCGA | 0.169 |
| CGTGTTAG | 0.0187 |
| GCATGTTA | -0.0356 |
| GAAAGGTC | 0.294 |
